Assay results published in PubChem BioAssay AID1745853 (National Center for Advancing Translational Sciences (NCATS), 2022).
Some of the results follow. Further columns of the screen follow, without active or inactive calls.

Columns and labels:
Assay in all cases: Primary Screen for Target Class Profiling of Small Molecule Inhibitors of Methyltransferases
[1] = biological target: Glycine N-methyltransferase (Homo sapiens) (UniProt Q14749); details: purified enzyme, MTase-Glo SAH luminescence; measured here: GNMT inhibition; at 40 µM; stronger effect = lower value
Procedure, shortened: (§1)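 Each enzyme was reacted with SAM and its substrate, with compounds tested once at 40 uM; SAH formed was read by MTase-Glo luminescence.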

[2] = biological target: Guanidinoacetate N-methyltransferase (Homo sapiens) (UniProt Q14353); details: purified enzyme, MTase-Glo SAH luminescence; measured here: GAMT inhibition; at 40 µM; stronger effect = lower value
Procedure, shortened: as §1

[3] = biological target: Histamine N-methyltransferase (Homo sapiens) (UniProt P50135); details: purified enzyme, MTase-Glo SAH luminescence; measured here: HNMT inhibition; at 40 µM; stronger effect = lower value
Procedure, shortened: as §1

[4] = biological target: Nicotinamide N-methyltransferase (Homo sapiens) (UniProt P40261); details: purified enzyme, MTase-Glo SAH luminescence; measured here: NNMT inhibition; at 40 µM; stronger effect = lower value
Procedure, shortened: as §1

[5] = biological target: Phenylethanolamine N-methyltransferase (Homo sapiens) (UniProt P11086); details: purified enzyme, MTase-Glo SAH luminescence; measured here: PNMT inhibition; at 40 µM; stronger effect = lower value
Procedure, shortened: as §1
On the % scale 0 is the no-effect control and ±100 the full control effect.

| Structure (SMILES) | activity change, negative = inhibition [1] | activity change, negative = inhibition [2] | activity change, negative = inhibition [3] | activity change, negative = inhibition [4] | activity change, negative = inhibition [5] |
| --- | --- | --- | --- | --- | --- |
| OC1(c2ccc3c(c2)c2c4n3CCN(Cc3ccccc3)C4CCC2)CCCC1 (stereo not given) | 0.24% | 4.46% | 0.927% | 2.27% | -3.23% |
| COC(=O)c1cc2n(n1)CC(C)(C(=O)NC1CCCCCC1)N(c1ccc(OC)cc1)C2=O (stereo not given) | 0.682% | 5.19% | 5.82% | 0.081% | 2.9% |
| O=[N+]([O-])c1cccc2[nH]c(CNc3nc(N4CCOCC4)nc4c3ncn4-c3ccsc3)nc12 | -5.31% | 7.59% | 8.48% | -18.1% | 3.21% |
| Cc1csc(NC(=O)c2sc3nc4c(c(C(F)(F)F)c3c2N)CCC4)n1 | -6.92% | -3.91% | -11% | -25.7% | -15% |
| CC1CC(C)CN(CCCN2C(=O)c3cc4sccc4n3CC2(C)C(=O)NC2CCCCCCC2)C1 (stereo not given) | 9.82% | 0% | 5.87% | 4.49% | -2.21% |
| Nc1ncnc2c1c(COc1cccc(Cl)c1)nn2C1CCOCC1 | -5.72% | -2.05% | 1.91% | -31.5% | -32.3% |
| CC1(C(=O)NCc2ccc(F)cc2)Cn2cnc(C(=O)NCCc3ccc(Cl)cc3)c2C(=O)N1C1CC1 (stereo not given) | 2.2% | 0% | 10.9% | 8.03% | 6.37% |
| c1ccc(CO[C@H]2COCCN(c3nc4ccccc4o3)C2)cc1 | -3.36% | -1.35% | -57.7% | -14.7% | 1.7% |
| C=CCn1c(=O)c2ccc(C(=O)NC(C)C)cc2n2c(=O)n(CC(=O)Nc3ccc(C)cc3C)nc12 | 5.45% | 0% | 9.49% | 6.74% | 5.16% |
| COc1ccc(CCC(=O)N2CCC3(CC2)CC(Cc2nc(-c4cnccn4)no2)CCO3)cc1 (stereo not given) | -5.99% | -9.21% | -1.7% | -16.1% | -7.26% |
| CCOC(=O)C1(Cc2ccc(F)cc2)CCCN(C(=O)c2cc3nc(C)cc(C)n3n2)C1 (stereo not given) | -7.67% | -2.21% | -0.554% | -5.25% | 4.83% |
| COc1ccc2cc3n(c2c1)CC(C)(C(=O)NC1CCCC1)N(CC(C)c1ccccc1)C3=O (stereo not given) | -2.49% | 2.8% | -5.06% | -2.27% | -2.22% |
| CCCC1c2cccn2CCN1C(=O)Nc1cc(C)ccc1OC (stereo not given) | 1.34% | 0% | -16.1% | 2.26% | 4.8% |
| O=C(NC1CCN(CC(F)(F)F)CC1)c1ccc(-c2cccc(F)c2)nc1 | 2.23% | 0.732% | 8.03% | -17.7% | -0.369% |
| CC(C)OCCCNC(=O)C1c2c(n(C)c3ccccc23)SCC(=O)N1CCc1ccsc1 (stereo not given) | -4.87% | 0.366% | 4.7% | 1.51% | 0.217% |
| COc1cccc(CN2C(=O)c3ccc(-c4ccccc4)n3CC2(C)C(=O)NC2CCCCCC2)c1 (stereo not given) | 0.501% | -0.653% | -2.59% | -12.2% | -5.11% |
| COc1ccc2cc3n(c2c1)CC(C)(C(=O)NC1CCCC1)N(C1CCCC1)C3=O (stereo not given) | 5.61% | 0.541% | 12.7% | 3.79% | 1.23% |
| CCCN1C(=O)c2c(C(=O)NCc3ccccc3OC)ncn2CC1(C)C(=O)NCc1ccc(C)cc1 (stereo not given) | -0.105% | 0% | 9.25% | 10.9% | 8.81% |
| Cc1ccc(C2c3cccn3-c3sc4c(c3CN2C(=O)Nc2cc(F)ccc2F)CCCC4)cc1 (stereo not given) | -4.43% | -9.81% | 0.779% | -10.1% | -3.3% |
